± gives the standard deviation of the averaged measurements. This is one part of the list.

The subject of the assay is Drosophila ezoana. Description: attraction index (odor vs solvent trap) (index (-1 to 1)); higher = more attraction to the odorant. Conditions: test temperature 23 °C; odor dose: 10^-2 dilution in mineral oil. As for the experimental part: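 Two-choice trap assay at 23 °C and 70% humidity. Starved adult flies (20 per box, 4-6 days old) chose between a trap with odorant (2 µl at 10^-2 in 200 µl mineral oil) and a solvent trap; counts were taken after 24 h.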
In turn, `CC(=O)CCC=C(C)C` [6-methyl-5-hepten-2-one] yielded an attraction index of -0.0583 ± 0.56.

The compound `COC(=O)c1ccccc1` [methyl benzoate] registered an attraction index of -0.00603 ± 0.47.

Compound `C=CC(O)CCCCC` (stereo not drawn) [1-octen-3-ol] gave an attraction index of -0.154 ± 0.23.

With `CCOC(=O)CC(C)O` (stereo not drawn) [ethyl 3-hydroxybutyrate], the attraction index is -0.27 ± 0.53.

Take `CCCCCC(=O)OCC` [ethyl hexanoate]: the attraction index was 0.0823 ± 0.35.

In the case of `CCCC(=O)OCc1ccccc1` [benzyl butyrate], the attraction index worked out at 0.449 ± 0.2.

For `CC(=O)C(C)O` (stereo not drawn) [acetoin], the attraction index was -0.22 ± 0.45.

With `CCOC(=O)C(C)O` (stereo not drawn) [ethyl lactate], the attraction index was -0.02 ± 0.46.

As to `COC(=O)c1ccccc1O` [methyl salicylate], the attraction index was determined as 0.267 ± 0.19.

Consider `CCCCCCOC(C)=O` [hexyl acetate], for which the attraction index is -0.201 ± 0.32.

Compound `CC(=O)c1ccccc1` [acetophenone] showed an attraction index of -0.54 ± 0.26.

As for `CCCCCCO` [1-hexanol], the attraction index was -0.0336 ± 0.4.

With `COc1ccccc1O` [guaiacol], the attraction index was -0.424 ± 0.46.

`COc1cccc(OC)c1O` [2,6-dimethoxyphenol] had an attraction index of 0.0943 ± 0.37.

As to `CCCCCOC(C)=O` [pentyl acetate], the attraction index was found to be 0.0885 ± 0.3.

In turn, `CCCCCC(C)=O` [2-heptanone] yielded an attraction index of 0.404 ± 0.35.

Take `CC(C)OC(=O)c1ccccc1` [isopropyl benzoate]: the attraction index was 0.0301 ± 0.34.

`CC(=O)OC/C=C(\C)CCC=C(C)C` [geranyl acetate] had an attraction index of 0.128 ± 0.25.

The values are drawn from the supplement of paper PMC10477191.
